Measured values reported in publication PMC4336329 (PLoS ONE, 2015).
Screen size: about 310,000 compounds; about 14,000 (4.5%) showed an effect of 50% or more. The effect is printed as a negative number. Some of the results follow. Where a SMILES comes first, the peptide text is derived from it. The star is where a group is joined. Cbz = O=C(OCc1ccccc1)*

target: human ether-à-go-go-related gene (hERG) potassium channel (human, UniProt Q12809); assay: primary screen, population patch clamp on CHO cells stably expressing hERG
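Also: peak tail current of the secondary pulse compared with the same well before compound.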

Chain of human ether-à-go-go-related gene (hERG) potassium channel (Q12809 whole entry, looked up): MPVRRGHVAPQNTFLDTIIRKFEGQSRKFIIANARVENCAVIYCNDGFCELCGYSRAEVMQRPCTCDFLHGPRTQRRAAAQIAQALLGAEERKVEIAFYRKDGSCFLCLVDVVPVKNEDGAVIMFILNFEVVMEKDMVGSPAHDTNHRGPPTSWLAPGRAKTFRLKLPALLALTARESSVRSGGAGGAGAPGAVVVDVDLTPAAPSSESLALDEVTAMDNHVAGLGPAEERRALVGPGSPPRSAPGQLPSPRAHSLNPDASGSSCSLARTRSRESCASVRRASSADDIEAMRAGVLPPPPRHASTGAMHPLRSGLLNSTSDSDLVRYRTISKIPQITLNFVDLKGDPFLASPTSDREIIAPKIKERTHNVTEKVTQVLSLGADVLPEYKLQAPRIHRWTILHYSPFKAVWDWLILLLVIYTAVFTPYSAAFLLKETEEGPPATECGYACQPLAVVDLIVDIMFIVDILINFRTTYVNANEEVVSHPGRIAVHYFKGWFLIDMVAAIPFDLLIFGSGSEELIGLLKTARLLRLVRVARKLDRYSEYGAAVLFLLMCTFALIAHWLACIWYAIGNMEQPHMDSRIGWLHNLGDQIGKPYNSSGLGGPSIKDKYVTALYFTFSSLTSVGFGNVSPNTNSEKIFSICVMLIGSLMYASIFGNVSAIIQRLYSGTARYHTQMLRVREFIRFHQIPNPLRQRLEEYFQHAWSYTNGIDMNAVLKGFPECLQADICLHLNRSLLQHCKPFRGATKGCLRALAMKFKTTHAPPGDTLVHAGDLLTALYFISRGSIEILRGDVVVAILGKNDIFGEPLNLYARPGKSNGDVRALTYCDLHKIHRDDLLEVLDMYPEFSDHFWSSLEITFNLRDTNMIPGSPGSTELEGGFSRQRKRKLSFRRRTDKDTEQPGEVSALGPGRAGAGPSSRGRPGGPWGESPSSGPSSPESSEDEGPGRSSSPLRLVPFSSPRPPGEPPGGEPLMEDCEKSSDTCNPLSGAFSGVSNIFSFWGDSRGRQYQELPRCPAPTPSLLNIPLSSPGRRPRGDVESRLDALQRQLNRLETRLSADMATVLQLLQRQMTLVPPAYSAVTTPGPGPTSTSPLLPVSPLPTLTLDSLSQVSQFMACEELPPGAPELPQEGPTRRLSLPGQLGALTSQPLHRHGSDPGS

Structure (SMILES) | hERG current change (%, negative = inhibition) at 10uM [%]
O=C(c1ccc(NS(=O)(=O)c2ccc3c(c2)OCCO3)cc1)N1CCCCC1 | -2.47
CCc1ccc(OCc2ccc(C(=O)OC)o2)cc1 | 9.41
COc1ccc(NC(=O)CCSc2nnc(C)s2)cc1 | 20.4
CCOc1ccc(CNCc2ccc(C(=O)O)cc2)cc1OC.Cl | 15.1
C=CCNCCCCOc1ccc(C)cc1[N+](=O)[O-] | -7.31
CC(NC(=O)NC1CCCCC1)C(c1cccs1)N1CCN(c2ccccc2)CC1 (stereo not drawn) | -48.6
COC(=O)CCCC1=CC2=CC(=O)C(C)(OC(=O)c3cccs3)C(=O)C2=CO1 (stereo not drawn) | 11.2
CCCNC(=O)/C=C/c1ccc(C(C)C)cc1 | -10.1
N=C1/C(=C\c2ccc(-c3cccc(C(=O)O)c3)o2)C(=O)N=C2SC=C(c3ccccc3)N12 | 0.469
CC1CCN(C(=O)CCNS(=O)(=O)c2ccccc2)CC1 | -1.37
Cc1cc(C)nc(/N=C(\N)Nc2cccc([N+](=O)[O-])c2)n1 | -28.7
COc1ccccc1N(C)S(=O)(=O)c1ccc(C(=O)Nc2nc(C)c(C(C)=O)s2)cc1 | 11.6
CC(C)CCN1C(Nc2ccccc2)=NC[C@@H]1C | -9.63
CCOc1ccccc1OCCCC(=O)N1CCN(S(=O)(=O)c2ccc(C)cc2C)CC1 | -17.7
COCCn1c(SCC(=O)Nc2nnc(C)s2)nnc1-c1cc2ccccc2cc1O | -16.9
Cc1cc2nn(-c3cccc4ccccc34)nc2cc1N | 13
COc1ccc(S(=O)(=O)N2CCN(C3CC4CCC3C4)CC2)cc1.O=C(O)C(=O)O (stereo not drawn) | 3.43
CCOc1cccc(N2C(=O)CC(NNC(=O)c3ccc(Br)o3)C2=O)c1 (stereo not drawn) | 4.35
CCC1(C)Cc2c(sc3nnn(CC(=O)Nc4ccccc4)c(=O)c23)CO1 (stereo not drawn) | -27.3
CN(C)CCNc1ccc(-c2nn(C)c(=O)c3ccccc23)cc1[N+](=O)[O-] | -1.47
CO/N=C(/CNC(=O)c1ccc(F)cc1)c1ccc(Cl)cc1 | 3.49
Nc1c(-c2ccccc2)cnn1-c1ccccc1 | 12
Cc1cc(C(=O)N2CCN(S(C)(=O)=O)CC2)cs1 | 13

Structure (SMILES) | hERG current change (%, negative = inhibition) at 10uM [%]
COc1ccc(Cl)cc1S(=O)(=O)Nc1ccc2c(c1)n(C)c(=O)n2C | 1.45
Oc1ccccc1-c1nc(NC2CCCC2)c2ccccc2n1 | 17.8
N#C/C=C/N1CCN(C(=O)c2ccco2)CC1 | 5.33
CC(=O)Oc1ccc(/C=N/NC(=S)Nc2ccccc2)cc1 | 1.99
Br.CCCN(CCC)[C@@H]1CCc2cccc(O)c2C1 | -34.4
COC(=O)C1(C(=O)OC)Sc2ccccc2C1=O | 5.35
S=c1[nH]nc(COc2cccc(Cl)c2)n1Cc1ccccc1 | 34.4
CCOc1ccc(C(=O)NC(=S)Nc2ccc(NC(=O)CC)cc2)cc1[N+](=O)[O-] | 2.77
CCN(CC(=O)NCc1ccc(Cl)cc1)C(=O)c1cc2ccccc2o1 | -32.2
CC(C)CC(NC(=O)C1CCCN1C(=O)CNC(=O)OCc1ccccc1)C(=O)O (stereo not drawn) (Cbz-Gly-Pro-Leu-OH; configuration not given here) | 20.3
CN(C1CCCCC1)S(=O)(=O)c1ccc(NC(=S)NC(=O)c2cccs2)cc1 | 12.6
Cc1ccc(Cl)cc1NC(=O)[C@@H]1CCC(=O)N1C1OC(=O)c2ccccc21 (stereo partly drawn) | 11.1
COCCn1c(CCC(=O)O)ccc1-c1cccs1 | 15.5
CCCC(=O)Nc1cc(C(=O)O)ccc1Sc1ccccc1 | 36.6
COc1cc(/C=C/C(=O)O)cc(OC)c1O | 2.08
Oc1ccc(/C=N/NP(=S)(c2ccccc2)c2ccccc2)cc1 | -3.89
O=C(NC1CCCCC1)c1cc([N+](=O)[O-])ccc1N1CCOCC1 | -13.8
O=C(COc1ccccc1)N1CCc2ccccc21 | 0.422
O=C(CN(Cc1ccco1)C(=O)c1cccc(Cl)c1)Nc1c(Cl)cc(Cl)cc1Cl | 0.756
CC(C)CCN(C)C1CCN(S(=O)(=O)c2cccc(C(F)(F)F)c2)CC1.Cl | -36.4
CCOc1ccc(CCN2CN(CC)CNC2=S)cc1OCC | -0.457
CC(C)CC(=O)N(c1nnc(-c2cccnc2)s1)C1CCCC1 | 3.24
COc1cccc(C(=O)NCCS(=O)(=O)N2CCOCC2)c1 | -8.53

Structure (SMILES) | hERG current change (%, negative = inhibition) at 10uM [%]
Cc1ccc(NC(=O)CC(=O)Nc2ccc(C)c(C)c2)cc1C | 11.7
CCOC(=O)c1ccc(N=Cc2nc3ccccc3n2C)cc1 | 7.61
COc1ccccc1NC(=O)CCCNC(=O)Cn1cnc2sc(C)c(C)c2c1=O | 10.2
COc1ccccc1NC(=O)CSc1nnc(CCNC(=O)c2ccc(C)cc2)n1C | -3.75
CCc1ccc2[nH]cc(C(=O)OCCOC)c(=O)c2c1 | 4.42
O=C(O/N=C\c1ccc(N2CCCCC2)c([N+](=O)[O-])c1)c1cccc(C(F)(F)F)c1 | 5.92
Cc1cccnc1NC(=O)Nc1ccc(F)cc1 | -0.931
CC(Nc1ccc(Cl)c(Cl)c1)C(=O)NN (stereo not drawn) | 4.26
COc1ccc(/C=N/NC(=O)c2c(-c3ccccc3)noc2C)cc1[N+](=O)[O-] | -23.8
Cl.NS(=O)(=O)c1ccc(CCNCc2cc(Br)ccc2OCc2ccccc2)cc1 | -71.8
Cc1ccn2cc(CNS(=O)(=O)c3cccs3)nc2c1 | -30.4
CCOC(=O)C1(CC2CCCCO2)CCN(S(=O)(=O)c2cccc(F)c2)CC1 (stereo not drawn) | 29.8
O=C(Cc1coc2ccc3ccccc3c12)NC1CCCc2ccccc21 (stereo not drawn) | 5.99
O=C(Nc1ccncc1)c1ccccc1Cl | 18
CCNC1=C(Cl)C(=O)c2ccccc2C1=O | 9.46
Cc1ccccc1NS(=O)(=O)c1cc(C(=O)Nc2ccccc2-c2ccccc2)ccc1Cl | -5.96
O=C(N/N=C/c1cccc(OCc2ccccc2)c1)c1ccc(Br)o1 | 5.73
CCS(=O)(=O)c1ccc2oc(SCC(=O)N3CCCCC3)nc2c1 | -1.98
COc1ccnc2c1c(=O)n(Cc1ccc(Cl)cc1)c(=O)n2C | 17.5
C/C(N)=C(/C#N)C(=O)COC(=O)CCCNC(=O)c1ccc(Cl)cc1 | 12.5
Cl.c1ccc(CNCc2ccco2)cc1 | 15.1
COc1ccc(/C=N/NC(=O)Cn2cc(C(F)(F)F)ccc2=O)cc1 | 0.763
O=C1NC(c2ccc3c(c2)OCO3)Oc2ccccc21 (stereo not drawn) | 9.35

Structure (SMILES) | hERG current change (%, negative = inhibition) at 10uM [%]
CCCCC(O)CN1CCC(c2ccccc2)CC1 (stereo not drawn) | -56.6
Cc1ccc(OCC(O)CN2C(=O)NC(C)(C)C2=O)cc1C (stereo not drawn) | 14
O=C(Nc1ccccc1N1CCCC1)C1CCN(S(=O)(=O)c2ccccc2)CC1 | -6.89
O=S(=O)(Cc1cc(NCc2ccccc2)nc(-c2ccccn2)n1)c1ccccc1 | -17.1
Cc1ccccc1NS(=O)(=O)c1ccc(OCC(=O)NCc2ccco2)cc1 | -17.5
Cc1cc2ncn(C(=O)c3cc(-c4ccccc4)nc4ccccc34)c2cc1C | 7.56
COC(=O)CNc1cc(S(=O)(=O)N2CCCCC2)ccc1Oc1cccc(C)c1 | -30.7
O=C(/C=C/c1ccco1)NC1CCCC1 | 17.4
O=C1NC(=O)C2(Cc3ccccc3N3CCCC32)C(=O)N1c1cccc(Cl)c1 (stereo not drawn) | -18.1
CCOc1ccc(NC(=O)CN2CCN(CC(=O)Nc3ccc(C(N)=O)cc3)CC2)cc1 | -72.6
COc1ccc(S(=O)(=O)Nc2ccccc2C(=O)N2CCOCC2)cc1Cl | -18.5
CC(C)(C)C(=O)OCc1cn(-c2ccccc2)nn1 | -1.68
CCOC(=O)CN1C(=O)N[C@@H](c2ccco2)C(C(C)=O)=C1C | 2.93
O=C(CSc1nnc(-c2ccco2)o1)N1c2ccccc2CCc2ccccc21 | -3.88
CC(C)c1ccc(NC2CCCN(C(=O)CCN3CCCO3)C2)cc1 (stereo not drawn) | 13.8
CCC1CCCCN1CCNS(=O)(=O)c1ccc2c(c1)oc(=O)n2C (stereo not drawn) | 7.07
Cc1cc(F)ccc1N1CCC(N2CCN(C(C)C)C(CCO)C2)CC1 (stereo not drawn) | -24.7
Cc1cccc(OCC(O)CN2CC3(C)CC2CC(C)(C)C3)c1 (stereo not drawn) | -67.6
CC1CCN(CCC(=O)Nc2ccc(Cl)cc2)CC1.Cl | -56.9
CCCc1c(OCCCCc2nn[nH]n2)ccc(C(C)=O)c1O | 11.8
COc1cc(NC(=O)c2cccs2)c(OC)cc1NC(=O)c1cccs1 | 11.1
